Values marked as one replicate rest on one cluster of the flow cell; about a third of the high ones do not repeat.
Test system: ATP
Test: switch fluorescence ratio, 500 uM ATP over buffer (Cy3 cluster intensity, sum of 5 cycles each) (fold (ratio)); higher = stronger signal-on switching upon ATP binding; sequences stand for … in TCGTCGGCAGCGTCAGATGTGTATAAGAGACAGTTTTTTTTTTTTTTTTTTTTTTTTT…TC
Conditions: aptamer strand: ATP DNA aptamer (quencher-CACCTGGGGGAGTATTGCGGAGGAAGG + anchor), 100 nM annealed; ATP concentration: 500 uM; one replicate
How it was run: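 Exposure to 500 uM ATP lasted 15 min at 22 °C before imaging, and a selection-buffer image was taken beforehand, for Cy3-labelled switching-strand clusters on a modified Illumina MiSeq flow-cell annealed to 100 nM quencher-labelled ATP aptamer. Five buffer/ATP cycles were run with NaOH stripping and re-annealing between them. The fluorescence ratio per cluster is summed target-cycle over summed buffer-cycle Cy3 intensity, averaged per switch-domain sequence. Clusters outside 100-1000 RFU were excluded.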

CTTGCGACCA
switch fluorescence ratio: 1.22

CTCGGCACCG
switch fluorescence ratio: 1.01

TGGGCATGAT
switch fluorescence ratio: 0.977

TAGTAGGACG
switch fluorescence ratio: 1

TTTTAGTACG
switch fluorescence ratio: 1

AAGCAACATG
switch fluorescence ratio: 1.02

TCAGATCACG
switch fluorescence ratio: 0.978

TATGGACTCT
switch fluorescence ratio: 0.998

GCCATAGCCG
switch fluorescence ratio: 1.09

ACGTAAAGTG
switch fluorescence ratio: 1.04

TAGATAGACG
switch fluorescence ratio: 0.966

TTAAAACTTC
switch fluorescence ratio: 1.04

TCGTACGGAA
switch fluorescence ratio: 1.14

AGCAAGTGCA
switch fluorescence ratio: 1.03

CCAGCTAGCG
switch fluorescence ratio: 0.967

TGGATGCTTT
switch fluorescence ratio: 0.976

TCGTAATAAG
switch fluorescence ratio: 1.02

CTTCCCTATT
switch fluorescence ratio: 1.06

AGTCGAAAAG
switch fluorescence ratio: 0.993

GATTGGAGGT
switch fluorescence ratio: 0.961

TAAACGTTCA
switch fluorescence ratio: 1.29

GTTTGTCTAG
switch fluorescence ratio: 0.984

TACGCGGAAT
switch fluorescence ratio: 0.988

TCGGAAAAAG
switch fluorescence ratio: 0.982

AAGCTGAGTA
switch fluorescence ratio: 1.01

TCAGACTTCT
switch fluorescence ratio: 1.03

CTGGAGTGAC
switch fluorescence ratio: 2.28

TTTAATCAGT
switch fluorescence ratio: 1.01

TGTAAGATAT
switch fluorescence ratio: 0.97

CGTGTGGTTA
switch fluorescence ratio: 1.04

CTTAAACTTC
switch fluorescence ratio: 1.05

AAGAGACTTG
switch fluorescence ratio: 1.08

GTGAATGGG
switch fluorescence ratio: 0.962

CAATGTGTCC
switch fluorescence ratio: 1.05

CATTCAGAGG
switch fluorescence ratio: 1.01

CTGTCGGTAC
switch fluorescence ratio: 5.06

CACTCGGCTT
switch fluorescence ratio: 1.07

TGAGCCCCCG
switch fluorescence ratio: 1.01

CAGCTGAGTT
switch fluorescence ratio: 1.02

GATCCCAAGT
switch fluorescence ratio: 1.02

GTAACGACCT
switch fluorescence ratio: 1.27

CTCATTACGC
switch fluorescence ratio: 1.05

TGCTACTATG
switch fluorescence ratio: 0.982

TACCACATAT
switch fluorescence ratio: 1.08

AGTAGCTCG
switch fluorescence ratio: 1.1

CCGGGCGAAG
switch fluorescence ratio: 0.999

TGGTATTTGA
switch fluorescence ratio: 0.961

GAGAACGGAT
switch fluorescence ratio: 0.973

TTTCAAAAAG
switch fluorescence ratio: 1

TGACCCGATA
switch fluorescence ratio: 1.05

ATATGTGTTC
switch fluorescence ratio: 0.966

CATGGATCGT
switch fluorescence ratio: 0.986

AAATTTATGC
switch fluorescence ratio: 0.989

GTAGGTTGCT
switch fluorescence ratio: 1.02

GGAGGCGTAA
switch fluorescence ratio: 0.992

AACCGCTGCT
switch fluorescence ratio: 1.29

GCTGGACTGG
switch fluorescence ratio: 1.04

TTGTCTGAG
switch fluorescence ratio: 0.992

CATAGCCGGC
switch fluorescence ratio: 1.02

AAGCTTGTAT
switch fluorescence ratio: 1.03

AATCACCTGG
switch fluorescence ratio: 1.05

TCTCCAAACG
switch fluorescence ratio: 1.39

TAAATTTCAC
switch fluorescence ratio: 1.02

CAATAATTCA
switch fluorescence ratio: 1.03

CGTCGTCGGC
switch fluorescence ratio: 1.07

AGAAAGG
switch fluorescence ratio: 0.977

CTAAAAGGG
switch fluorescence ratio: 1.01

AATGTTGGCA
switch fluorescence ratio: 1.05

CGTGGGGAG
switch fluorescence ratio: 0.999

GCCTTATTCA
switch fluorescence ratio: 0.977

ATAAGTATCT
switch fluorescence ratio: 0.987

AGGACATAGG
switch fluorescence ratio: 1.03

AATCGAGAGT
switch fluorescence ratio: 1.01

CTTTCTGATG
switch fluorescence ratio: 1

ACCGTCCGAG
switch fluorescence ratio: 3.11

ATTGAAGGTC
switch fluorescence ratio: 1.04

ATACGGACTC
switch fluorescence ratio: 1.37

ACAAAGGCC
switch fluorescence ratio: 1.03

GCAGCCGGCG
switch fluorescence ratio: 0.991

ACGGATGAAG
switch fluorescence ratio: 0.976

CTTAGACAAA
switch fluorescence ratio: 0.927

AGGTACTCTT
switch fluorescence ratio: 1.04

TTGCGTCTT
switch fluorescence ratio: 0.984

TGATTGATGT
switch fluorescence ratio: 0.981

TGCTGTGGC
switch fluorescence ratio: 0.993

ATTGGCTGCA
switch fluorescence ratio: 1.07

ACTTCCGCTT
switch fluorescence ratio: 2.06

AAGCTCGGAG
switch fluorescence ratio: 1.02

TAAGAACTTA
switch fluorescence ratio: 1.01

GCTCATTGGA
switch fluorescence ratio: 1.01

CGGCTGGCGT
switch fluorescence ratio: 1.02

AAAATTTAGT
switch fluorescence ratio: 1.02

TCCTAGGATA
switch fluorescence ratio: 1.03

GCTATTGTCA
switch fluorescence ratio: 1.05

TTATGCGCTT
switch fluorescence ratio: 2.28

TAATCGCTTG
switch fluorescence ratio: 1.01

AGCTCCAAGG
switch fluorescence ratio: 1.02

GCTATAACTA
switch fluorescence ratio: 0.989

TGATCCGTTC
switch fluorescence ratio: 1.04

GTTGAAATGG
switch fluorescence ratio: 0.979

GAGATGTGTG
switch fluorescence ratio: 0.955

TGGAGTGGCT
switch fluorescence ratio: 0.964

CCTATATCGC
switch fluorescence ratio: 1.12

TTCAGGAGG
switch fluorescence ratio: 1

AGCATGAGTT
switch fluorescence ratio: 1.02

TAGGGGTATT
switch fluorescence ratio: 0.966

CGCCGGGGTG
switch fluorescence ratio: 1.06

GCGCGCACAG
switch fluorescence ratio: 0.981

CAGCGAATGT
switch fluorescence ratio: 1.02

ATGCCACTGA
switch fluorescence ratio: 1.01

GATATGAATC
switch fluorescence ratio: 0.973

TTTCACCCGA
switch fluorescence ratio: 1.09

CGGCCAGAGC
switch fluorescence ratio: 0.981

AATGCGTACG
switch fluorescence ratio: 1.01

TATAGCCAAC
switch fluorescence ratio: 1.05

AACTTTTCGA
switch fluorescence ratio: 1.04

GGCGAAAAGT
switch fluorescence ratio: 0.964

TTTAGGACCT
switch fluorescence ratio: 1.26

ACGGCCGCTA
switch fluorescence ratio: 1.09

AGACCTAAAA
switch fluorescence ratio: 0.953

ATGCAATGCG
switch fluorescence ratio: 1.63

TGATATTCTT
switch fluorescence ratio: 0.952

ACATAATAAC
switch fluorescence ratio: 1.02

AAAGTGAGGC
switch fluorescence ratio: 0.987

AGGGATTACC
switch fluorescence ratio: 1.25

ATGACGTGGT
switch fluorescence ratio: 1

CAATTTAAAT
switch fluorescence ratio: 0.954

GTACTTTTTT
switch fluorescence ratio: 1.03

CGGTAATTAT
switch fluorescence ratio: 1

TTTTGGCGTG
switch fluorescence ratio: 0.95

CCTCCATCT
switch fluorescence ratio: 1.63

CATGACTTCG
switch fluorescence ratio: 0.987

AGGTTCGTCC
switch fluorescence ratio: 0.977

AACGACTAGC
switch fluorescence ratio: 0.984

CGAAGAGACG
switch fluorescence ratio: 1.01

TGCGGTAGGG
switch fluorescence ratio: 1.03

AACGCGTCGT
switch fluorescence ratio: 1.14

TCCTTTTGTG
switch fluorescence ratio: 0.953

GGTTAGGGT
switch fluorescence ratio: 1.05

TTGTGGTAAT
switch fluorescence ratio: 1.03

AACTGATGCG
switch fluorescence ratio: 0.992

GAAGACATAT
switch fluorescence ratio: 1.1

TACTGTTCCG
switch fluorescence ratio: 0.995

TCCTAGTTCG
switch fluorescence ratio: 0.977

TTGTTACCTG
switch fluorescence ratio: 0.967

TGCCTAGTCC
switch fluorescence ratio: 1.01

AGTATATCAA
switch fluorescence ratio: 1.01

TAACAATAAG
switch fluorescence ratio: 1.03

CGGGTTCCGG
switch fluorescence ratio: 1.05

AGTCAAAGA
switch fluorescence ratio: 0.987

AGTTAATCGA
switch fluorescence ratio: 1

CCCCGGTTG
switch fluorescence ratio: 2.67

TGACGAAGGC
switch fluorescence ratio: 0.951

TCTGTTCAAG
switch fluorescence ratio: 1.01

TTTAGGAGCG
switch fluorescence ratio: 0.987

TGTCACAAGT
switch fluorescence ratio: 0.984

AGAGCCGCTC
switch fluorescence ratio: 1.05

GTCGATAACT
switch fluorescence ratio: 1.02

CGAGTGAAAA
switch fluorescence ratio: 1.3

CCGCTAAGGA
switch fluorescence ratio: 1.25

TGATCTCCG
switch fluorescence ratio: 1.2

TTTACTGATA
switch fluorescence ratio: 0.991

GAAGCGGGGT
switch fluorescence ratio: 0.926

GGAAAACCAT
switch fluorescence ratio: 1

AATATTGCAT
switch fluorescence ratio: 1.01

GTTCGTGGGA
switch fluorescence ratio: 1.01

GGCGAGCACG
switch fluorescence ratio: 0.97

GGCTTTTTCC
switch fluorescence ratio: 1.15

ATTTGCTTCA
switch fluorescence ratio: 1.02

AATATGTTGA
switch fluorescence ratio: 0.996

ATTCGACCAA
switch fluorescence ratio: 1.14

ATTCGCATAG
switch fluorescence ratio: 2.1

AGACAAAGTT
switch fluorescence ratio: 1.01

AGGTCAAACG
switch fluorescence ratio: 1.01

AAAGGACGCT
switch fluorescence ratio: 1.03

CCTAGATTGT
switch fluorescence ratio: 1.01

TGAAAAAC
switch fluorescence ratio: 1.08

TAATATGGCA
switch fluorescence ratio: 0.987

CTCTCCAGCT
switch fluorescence ratio: 1.57

AGCGGAGTGT
switch fluorescence ratio: 0.99

AATGAAACGT
switch fluorescence ratio: 1.08

AAAAGGTGT
switch fluorescence ratio: 1.07

GCATGACGGT
switch fluorescence ratio: 0.996

TACCTGTGGG
switch fluorescence ratio: 1.42

GCCACTGTCA
switch fluorescence ratio: 1.05

AGAAAACTGT
switch fluorescence ratio: 1.12

CGTGTCGGGG
switch fluorescence ratio: 1.02

ATGGAGATG
switch fluorescence ratio: 0.991

ATTAGAGCTA
switch fluorescence ratio: 1.03

GTGAGACTT
switch fluorescence ratio: 1.02

GCATATGGCA
switch fluorescence ratio: 1.03

GCTGGGATCA
switch fluorescence ratio: 0.937

CGGATTGTAC
switch fluorescence ratio: 1.13

TCAGCTTCGA
switch fluorescence ratio: 1.01

ACGAGGGGGT
switch fluorescence ratio: 1.08

GATAGCCCTC
switch fluorescence ratio: 0.967

AGTATTATA
switch fluorescence ratio: 0.978

AATCGTACTC
switch fluorescence ratio: 1.11

ACTTATGCCG
switch fluorescence ratio: 1.02

CCACTGTTGC
switch fluorescence ratio: 1.06

ATTAGGGTGC
switch fluorescence ratio: 1.05

From the supplement of paper PMC10126150
